Assay results taken from patent US7812042B2, “Pharmaceutical compositions and therapeutic applications for the use of a novel vitamin B12 derivative, N-acetyl-L-cysteinylcobalamin” (priority 2006, dated 2010).
Some values that stand alone complete this part of the results.

System: SK-HEP-1 cells
Test: Protection of endothelial cells from homocysteine-induced cell death (MTS assay, absorbance at 490 nm; includes comparison of NACCbl, NAC, cyanocobalamin+NAC, free thiols, other cobalamins, folate)
Type: cell-based, Human
Details: NACCbl 30 μM, NAC 75 μM
Method: The effect of a constant concentration of NACCbl and GSCbl to protect cells against variable concentrations of homocysteine was assessed. […] Cell viability was determined by MTS® assay. Data shown in FIG. 4 are representative of means ±SE of 6 independent samples. FIG. 4 illustrates that NACCbl (▪) and GSCbl (▴) protect endothelial cells from the effect of homocysteine. […] Cell viability was determined by MTS® assay. […] There was a decrease in protection as homocysteine concentration increased, but there was still ˜60% survival at 50 μM homocysteine.
The data was normalized (log 2 and log 10) as shown in FIGS. 16 and 17 and Tables 16 and 17, respectively, below.

In the case of CC(=O)NC(C[S-])C(=O)O.CC1=C2N=C(C=C3N=C(C(C)=C4[N-]C(C(CC(N)=O)C4(C)CCC(=O)NCC(C)OP(=O)([O-])OC4C(CO)OC(n5cnc6cc(C)c(C)cc65)C4O)C4(C)N=C1C(CCC(N)=O)C4(C)CC(N)=O)C(CCC(N)=O)C3(C)C)C(CCC(N)=O)C2(C)CC(N)=O.[Co+3] [NACCbl, N-acetyl-L-cysteinylcobalamin], the “normalized cell viability (MTS), percent, mean of 6” value (Conc. Hcy 0.000, Normalized data, Log 2) is reported as 94.824, the “normalized cell viability (MTS), percent, mean of 6” value (Conc. Hcy 0.000, Normalized data, Log 10) is reported as 100.000 and the “normalized cell viability (MTS), percent, mean of 6” value (Conc. Hcy 1.780, normalized data log 2) is reported as 91.341. For the same molecule, the “normalized cell viability (MTS), percent, mean of 6” value (Conc. Hcy 1.780, normalized data log 10) was 96.489, the “normalized cell viability (MTS), percent, mean of 6” value (Conc. Hcy 3.125, normalized data log 2) was 80.699 and the “normalized cell viability (MTS), percent, mean of 6” value (Conc. Hcy 3.125, normalized data log 10) was 85.763. The “normalized cell viability (MTS), percent, mean of 6” value (Conc. Hcy 6.250, normalized data log 2) was 75.524, the “normalized cell viability (MTS), percent, mean of 6” value (Conc. Hcy 6.250, normalized data log 10) was 80.546 and the “normalized cell viability (MTS), percent, mean of 6” value (Conc. Hcy 12.500, normalized data log 2) was 70.387. The “normalized cell viability (MTS), percent, mean of 6” value (Conc. Hcy 12.500, normalized data log 10) was 75.368, the “normalized cell viability (MTS), percent, mean of 6” value (Conc. Hcy 25.000, normalized data log 2) was 62.926 and the “normalized cell viability (MTS), percent, mean of 6” value (Conc. Hcy 25.000, normalized data log 10) was 67.848. The “normalized cell viability (MTS), percent, mean of 6” value (Conc. Hcy 50.000, normalized data log 2) was 56.302, the “normalized cell viability (MTS), percent, mean of 6” value (Conc. Hcy 50.000, normalized data log 10) was 61.171 and the “normalized cell viability (MTS), percent, mean of 6” value (Conc. Hcy 100.000, normalized data log 2) was 52.298. For the same molecule, the “normalized cell viability (MTS), percent, mean of 6” value (Conc. Hcy 100.000, normalized data log 10) was 57.135, the “normalized cell viability (MTS), percent, mean of 6” value (Conc. Hcy 200.000, normalized data log 2) was 40.781 and the “normalized cell viability (MTS), percent, mean of 6” value (Conc. Hcy 200.000, normalized data log 10) was 45.526.
